Laboratory results reported in the supplement of paper PMC12067093, “Discovery and optimisation of a covalent ligand for TRIM25 and its application to targeted protein ubiquitination” (Chemical Science, 2025).
Of roughly 21,000 targets only a part is listed; those with the largest changes were picked by preference.

Compound: CC1Cc2ccccc2N1C(=O)C1CCCN(C1)C(=O)CCl (mixture of isomers) [TRIM25 ligand 11 (diastereomer mixture)]
Assay: probe-labelled cysteine peptide fold change vs DMSO (competition) (log2 fold change); higher = less target engagement (more negative = stronger competition)
Settings: THP-1, incubation time: 4 h
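Note: competitive chemoproteomic profiling in live THP-1 cells with an iodoacetamide desthiobiotin (IA-DTB) probe, comparing probe-labelled peptide intensities in compound-treated cells against DMSO-treated controls.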

Target	probe-labelled cysteine peptide fold change (10 µM)	probe-labelled cysteine peptide fold change (50 µM)
AP1B1_Q10567_433_YESVIATLCENLDSLDEPEAR (UniProt Q10567)	0.794	0.446
BCLAF1_Q9NYF8_688_CDSADLRHDIDR (UniProt Q9NYF8)	-0.909	-0.508
ANKRD44_Q8N8A2_810_KFIGNPFTPLHCAIINDHGNCASLLLGAIDSSIVSCRDDK (UniProt Q8N8A2)	-0.285	-0.0718
AKR7A2_O43488_156_RLQCPQVDLFYLHAPDHGTPVEETLHACQR (UniProt O43488)	-0.128	0.041
AGK_Q53H12_72_ATVFLNPAACK (UniProt Q53H12)	0.0656	0.0451
AK6_Q9Y3D8_122_KLTDNIQCEIFQVLYEEATASYK (UniProt Q9Y3D8)	0.286	0.108
BLM_P54132_704_SLCYQLPACVSPGVTVVISPLR (UniProt P54132)	-0.495	-0.176
ARHGEF10_O15013_1030_STVMSLACTSQSLYAGLVNGAVASYAR (UniProt O15013)	0.349	0.118
APPL1_Q9UKG1_603_SESNLSSVCYIFESNNEGEK (UniProt Q9UKG1)	0.208	0.1
B4GAT1_O43505_159_VAMHLVCPSR (UniProt O43505+B4GAT1)	0.253	0.253
BANK1_Q8NDB2_349_ELPTLLHCAAK (UniProt Q8NDB2)	-0.0861	0.105
AGO2_Q9UKV8_787_FSSDELQILTYQLCHTYVR (UniProt Q9UKV8)	0.232	0.0285
BCAS3_Q9H6U6_412_VQDICFSHDCR (UniProt Q9H6U6)	0.00552	0.251
ATXN2_Q99700_852_DSFIENSSSNCTSGSSKPNSPSISPSILSNTEHK (UniProt Q99700)	-0.097	-0.224
ATL3_Q6DD88_256+262_NHIHSCFSDVTCFLLPHPGLQVATSPDFDGK (UniProt Q6DD88)	0.0437	-0.00361
AQR_O60306_1039_IIAMTCTHAALKR (UniProt O60306)	-0.207	0.0491
ARHGEF10L_Q9HCE6_1236_EICSVAIISGGQGYR (UniProt Q9HCE6)	-0.0622	
BLVRA_P53004_204_MTVCLETEKK (UniProt P53004)	-0.114	0.0392
ANKRD17_O75179_714_GGHTSVVCYLLDYPNNLLSAPPPDVTQLTPPSHDLNR (UniProt O75179)	0.0617	-0.0914
AURKA_O14965_33_RVLVTQQFPCQNPLPVNSGQAQR (UniProt O14965)	0.107	-0.193
ASNA1_O43681_53+55_TTCSCSLAVQLSK (UniProt O43681)	0.0545	

Target	probe-labelled cysteine peptide fold change (10 µM)	probe-labelled cysteine peptide fold change (50 µM)
BIRC6_Q9NR09_62_DGCMHCDADGLHSLSYHPALNAILAVTSR (UniProt Q9NR09)	-0.224	-0.0432
APAF1_O14727_203_LQNLCTR (UniProt O14727)	0.0498	0.0464
BOP1_Q14137_620_LMPNCK (UniProt Q14137)	-0.0435	-0.0726
ALDOA_P04075_73_VNPCIGGVILFHETLYQK (UniProt P04075)	0.199	0.0247
AGPS_O00116_58_EALSTNECK (UniProt O00116)	0.0265	-0.111
ATOX1_O00244_41_VCIESEHSMDTLLATLK (UniProt O00244)	-0.0316	-0.0141
ANKRD17_O75179_672_TTANNDHTVLSLACAGGHLAVVELLLAHGADPTHR (UniProt O75179)	-0.046	-0.181
ANAPC7_Q9UJX3_451_TLGANAQTLTLLATVCLEDPVTQEK (UniProt Q9UJX3)	-0.0938	-0.103
AKAP8L_Q9ULX6_128_LDMVPHLETDMMQGGVYGSGGERYDSYESCDSR (UniProt Q9ULX6)	-0.329	-0.712
AKAP1_Q92667_64_EPLPVEDVCPK (UniProt Q92667)	0.15	0.0642
ANXA7_P20073_413_TILQCALNR (UniProt P20073)	0.07	0.257
AGL_P35573_234_WIQEHPECAYNLVNSPHLK (UniProt P35573)	0.0565	-0.0246
AMBP_P02760_281_ECLQTCR (UniProt P02760)	0.607	0.447
BLVRB_P30043_109_VVACTSAFLLWDPTK (UniProt P30043)	-0.0186	0.0611
BOD1L1_Q8NFC6_876_CDMDSTNMDSNLKPEEVVHK (UniProt Q8NFC6)	-0.0761	-0.189
APOOL_Q6UXV4_74_TATGCYIGWCK (UniProt Q6UXV4)	-0.033	0.00836
AGPAT1_Q99943_229_RFTSGQCQVR (UniProt Q99943)	0.183	0.345
AMBP_P02760_277+281_ECLQTCR (UniProt P02760)	0.453	0.32
ALG2_Q9H553_70_CAGDWLPR (UniProt Q9H553)	-0.0109	-0.0398
ARPC1A_Q92747_13_SLHQFLLEPITCHAWNR (UniProt Q92747)	0.342	0.615
ATP6V1A_P38606_138_DIKWDFTPCK (UniProt P38606)	-0.797	-1.27

Target	probe-labelled cysteine peptide fold change (10 µM)	probe-labelled cysteine peptide fold change (50 µM)
ATP6V1H_Q9UI12_47_VNWQSYLQGQMISAEDCEFIQR (UniProt Q9UI12)	-0.861	-0.546
ATP1A1_P05023_211_IISANGCK (UniProt P05023)	-0.25	-0.142
BAZ1A_Q9NRL2_404_EDMECDDLK (UniProt Q9NRL2)	-0.247	-0.229
ATP6V1A_P38606_240+254_VLDALFPCVQGGTTAIPGAFGCGK (UniProt P38606)	-0.204	-0.131
APPL1_Q9UKG1_549_MTESHLLVTCDCLK (UniProt Q9UKG1)	0.138	0.222
AHNAK_Q09666_108_EVFSSCSSEVVLSGDDEEYQR (UniProt Q09666)	0.0368	-0.166
ARHGEF12_Q9NZN5_921_FQTFVQDAESNPLCR (UniProt Q9NZN5)	0.0822	0.105
ALDH1L1_O75891_537_YFAGWCDK (UniProt O75891)	0.0811	0.214
ATP6V1H_Q9UI12_85_TFINLMTHICK (UniProt Q9UI12)	0.0544	-0.0133
AMPD2_Q01433_230_CGVPFTDLLDAAK (UniProt Q01433)	0.0113	0.0565
BANF1_O75531_80_DCFGCLR (UniProt O75531)	-0.0973	0.121
ANKMY2_Q8IV38_227_MHYISCIFQK (UniProt Q8IV38)	0.128	0.21
ARMT1_Q9H993_398_KWEFSVPFHQALNGFHPAPLCTIR (UniProt Q9H993)	-0.0702	0.0539
AMBP_P02760_277_ECLQTCR (UniProt P02760)	0.264	0.576
ARHGAP4_P98171_330_VLEVHATVFCPPLR (UniProt P98171)	0.0508	-0.0246
ALG1L2_C9J202_180_CLHELVK<|>ALG1L_Q6GMV1_92_CLHELVK<|>ALG1_Q9BT22_396_CLHELVK (UniProt Q9BT22+Q6GMV1+C9J202)	0.157	0.122
ATM_Q13315_1396_ATFAYISNCHK (UniProt Q13315)	0.0278	-0.309
ANXA7_P20073_327_LLVSMCQGNR (UniProt P20073)	0.0881	0.102
BAZ1B_Q9UIG0_1435_TEQCLVALLHK (UniProt Q9UIG0)	0.0176	0.12
ATR_Q13535_2497_HGENILFDSLTGECVHVDFNCLFNK (UniProt Q13535)	0.441	0.219
BABAM2_Q9NXR7_34_VGLDATNCLR (UniProt Q9NXR7)	-0.138	-0.073

Target	probe-labelled cysteine peptide fold change (10 µM)	probe-labelled cysteine peptide fold change (50 µM)
BCAS3_Q9H6U6_442_GTSHVFPINPYGGQPCVR (UniProt Q9H6U6)	0.0264	0.0262
ATRX_P46100_1760_IILTGTPLQNNLIEYHCMVNFIK (UniProt P46100)	0.0119	0.0932
ARFRP1_Q13795_125_VVTSEALCGVPVLVLANK (UniProt Q13795)	0.0726	-0.0916
ALDH5A1_P51649_272_EVGEAICTDPLVSK (UniProt P51649)	-0.017	0.218
ARAP3_Q8WWN8_527_QCAGQHR (UniProt Q8WWN8)	0.338	-0.32
AP4S1_Q9Y587_122_VHIILDEMVLNGCIVETNR (UniProt Q9Y587)	0.0776	-0.00665
AURKB_Q96GD4_170_SCTFDEQR (UniProt Q96GD4)	-0.0164	0.321
ARHGEF7_Q14155_490_TLGNVTYMSQVLIQCAGSEEK (UniProt Q14155)	0.0515	-0.0922
ANO10_Q9NW15_124_GFDDNNDDFLTMAECQFIIK (UniProt Q9NW15)	-0.447	-0.646
BAZ1B_Q9UIG0_1231_AFHLFCLRPALYEVPDGEWQCPACQPATAR (UniProt Q9UIG0)	0.0557	0.0194
ARHGAP45_Q92619_469_TCVADAK (UniProt Q92619)	-0.0831	0.0512
ATP13A1_Q9HD20_336_SPQENLVPCDVLLLR (UniProt Q9HD20)	-0.0527	0.0898
ATPAF1_Q5TC12_194_AQSCPTFLCALPR (UniProt Q5TC12)	-0.107	0.0875
ARPC5_O15511_45_FVDEEDGGDGQAGPDEGEVDSCLR (UniProt O15511)	0.0584	0.116
B2M_P61769_100_DEYACR (UniProt P61769)	0.129	0.355
ASCC2_Q9H1I8_276_HDFCYR (UniProt Q9H1I8)	0.106	0.0786
AHCYL1_O43865_151_IVGCTHITAQTAVLIETLCALGAQCR (UniProt O43865)	0.221	0.0186
AHRR_A9YTQ3_650_GEQSCTCR (UniProt A9YTQ3)	-0.0852	0.681
APOH_P02749_345_TDASDVKPC (UniProt P02749)	0.581	0.244
